Recombinant human monoclonal antibodies (heavy:light variable regions). ELISA EC50 on the named antigen, from 10 µg/ml down; IC50 against spike pseudovirus on HT1080-ACE2 cells, 48 h; lower = stronger. Calls: IC50 above 1,000 ng/ml = non-neutralizing; EC50 above 1,000 ng/ml = non-binder.

Experiment [1] has as its target SARS-CoV-2 Omicron BA.1 spike pseudovirus. Briefly: pseudovirus neutralization IC50; higher = weaker neutralization. The procedure: (§1)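 Single-round luciferase reporter pseudovirus mixed with antibody dilutions and put on HT1080-ACE2 clone 14 cells for 48 h; signal relative to no-antibody wells, four-parameter fit.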
Experiment [2] has as its target SARS-CoV-2 Omicron BA.4/5 spike pseudovirus. Described as above. On the procedure: as §1
Experiment [3] has as its target SARS-CoV-2 Wuhan-Hu-1 spike pseudovirus. The experiment is described as above. On the procedure:
as §1

Experiment [4] deals with SARS-CoV-2 Wuhan-Hu-1 spike receptor-binding domain. Briefly: ELISA binding EC50; higher = weaker binding; ELISA of recombinant human antibody on coated antigen, from 10 µg/ml in fourfold dilutions; four-parameter fit.

B1: C5253 (protein)
chain 1: QVQLVESGGGVVHPGRSLRLSCAASGFTFSTYGMHWVRQAPGKGPEWLTVISYDGDFKYYADSVKGRFTISRDNSKNTVYLQMNSLRTEDTAVYFCAKQLSPYCSGGSCYSYFDYWGQGTLVTVSS
chain 2: DIQMTQSPSSLSASIGDRVTITCQASQGISHFLNWFQQKPGKAPKLLIYDVSNLEAGVPSRFSGRGSGTDFTFTISSLQPEDIATYYCQQYDSLPLTFGGGTKVEIK
For B1, the “pseudovirus neutralization IC50” value in experiment [1], in experiment [2] and in experiment [3] was greater than 1000 ng/mL throughout. Further, in experiment [4], the “ELISA binding EC50” value came out at 4.98 ng/mL.

B2: C5261 (protein)
chain 1: QVQLVQSGAEVKKPGAAVKVSCKASGYMFSDYYLHWVRQAPGQGLEWMGIINPSAGSTTYAQKFQGRVTMTTDTSTSTVYMELSSLRSDDTAVYYCARDFFLIPAAIGLDYWGQGTLVTVSS
chain 2: EIVLTQSPGTLSLSPGERATLSCRASQSVSSRHLAWYQQKPGQAPRLLIYGASNRATGIPDRFSGSGSGTDFTLTISRLEPEDFAVYYCHQSGSSPPHTFGQGTTLEIK
Consider B2, for which the “pseudovirus neutralization IC50” value in experiment [1], in experiment [2] and in experiment [3] was greater than 1000 ng/mL throughout. Further, the “ELISA binding EC50” value in experiment [4] was 8 ng/mL.

B3: C5257 (protein)
chain 1: EVQLVESGGGLVKPGGSLRLSCLISGFTLSRFNMNWVRQAPGKGLEWVASISETSSHIYYADSVKGRFTISRDNAKNSLYLEMSSLRTEDTGLYYCVRDAFWSGPMPAYWGQGTLVTVSS
chain 2: DVVMTQSPLSLPVTLGQPASISCSFSQSLVYSDGNTYLSWFQQRPGQSPRRLIYQVSNRDSGVPDKFSGSGSGTDFTLKISRVEAEDVGVYYCLQGTHWPPTFGQGTKVEI
With B3, the “pseudovirus neutralization IC50” value in experiment [1] is greater than 1000 ng/mL; in experiment [2], greater than 1000 ng/mL; in experiment [3], 1.22 ng/mL. For the same molecule, the “ELISA binding EC50” value in experiment [4] is 2.31 ng/mL.

B4: C5047 (protein)
chain 1: QVQLVESGGGVVQPGRSLRLSCEASGFTFSRHAMHWVRQAPGNGLEWVAFISFDGSQQYYADSVKGRLILSRDNSKNTLYLQMNSLRPEDTAVYYCAINTLYHYDSSGPFDHWGQGTLVTVSS
chain 2: DIQMTQSPSTLSASVGDRVTITCRASQSISSWLAWYQQKPGKAPKLLIYDSSTLESGVPSRFSGSGSGAEFTLTISSLQPDDFTTYYCHQYNSYPWTFGQGTKVEIK
As to B4, the figures for the “pseudovirus neutralization IC50” value in experiment [1], in experiment [2] and in experiment [3] were 254 ng/mL, 945 ng/mL and 555 ng/mL, respectively. In addition, the “ELISA binding EC50” value in experiment [4] was determined as 4.22 ng/mL.

B5: C5264 (protein)
chain 1: QVQLVESGGGVVQPGRSLRLSCAASGFTFSNYGMHWVRQAPGKGLEWVAVISFDGSDKYYTGSVKGRFTISRDKSKNTLYLQMNSLRPEDTAVYYCAKDGPPYASGWYEGYYLDYWGQGTLVTVSS
chain 2: DIQMTQSPSSLSASVGDRVTITCRASQSISNFLNWFQQKPGKAPRLLIFAASSLQSGVPSRFSGSGSGTDFTLTISSLQPEDFATYYCQQSSSPPLTFGQGTRLEIK
For the molecule B5, the “pseudovirus neutralization IC50” value in experiment [1], in experiment [2] and in experiment [3] was greater than 1000 ng/mL throughout. Further, the “ELISA binding EC50” value in experiment [4] was 4.06 ng/mL.

B6: C5258 (protein)
chain 1: QVQLQESGPGLVKPSETLSLTCTVSGGSISTYYWSWIRQPPGKGLEWIGYMYYSGSSYYNPSLKSRVTISVDTSKNQFSLKLTSVTAADTAVYYCASSDWGGMYYYDYWGQGTLVTVSS
chain 2: EIVLTQSPGTLSLSPGERATLSCRASQSVYSSYLAWYQQKPGQAPRLLIYGASSRATGIPDRFSGSGSGTDFSVTIRRLEPEDFAVYYCQQYGSTPWTFGQGTKVEIK
As to B6, the entries for the “pseudovirus neutralization IC50” value in experiment [1], in experiment [2] and in experiment [3] were 220 ng/mL, greater than 1000 ng/mL and 6.87 ng/mL, respectively. The “ELISA binding EC50” value in experiment [4] came to 5.4 ng/mL.

B7: C5269 (protein)
chain 1: EVQLVESGGGLVQPGGSLRLSCVASGFTLSDYSINWVRQAPGRGLEWISYISRAGRTIYSADSLKGRFTVSRDNPTNSLHLQMINLRAEDTAVYYCARGVPFHYWGQGTLVTVSS
chain 2: DIVMTQTPLSLPVTPGEPASISCRSSKSLLGRDDGNTYLDWFLQKPGQSPQLLIYTLSYRASGVADRFSGSGSGTDFTLKISRVEAEDVGVYYCMQRIEFPWTFGQGTKVEI
Take B7: the “pseudovirus neutralization IC50” value in experiment [1] is 250 ng/mL; in experiment [2], greater than 1000 ng/mL; in experiment [3] it was 2.73 ng/mL. Moreover, in experiment [4], the “ELISA binding EC50” value amounted to 5.01 ng/mL.

B8: C5262 (protein)
chain 1: EVQLVESGGGLLQPGGSLRLSCVASGVTVSRNYMNWVRQAPGKGPEWVSVIFPGGSTFYLESVKGRFTISRDHSKNTLYLQMDRLRVDDTAVYYCARDLGPMGFDIWGQGTMVTVSS
chain 2: DIQLTQSPPFLSASVGDRVTITCRASEGFNNDLAWYQQKPGKAPKLLIYAASTLQSGVPSRFSGSGSGTEFTLTISSLQPEDFATYYCQHLNTHPPPFGGGTKVEIK
As for B8, the entries for the “pseudovirus neutralization IC50” value in experiment [1], in experiment [2] and in experiment [3] were 0.605 ng/mL, 0.639 ng/mL and 1.19 ng/mL, respectively. Moreover, in experiment [4], the “ELISA binding EC50” value was 3.11 ng/mL.

B9: C5254 (protein)
chain 1: QVQLVESGGGVVRPGGSLRLSCAASGFASDDYGMSWVRQVPGKGLEWVSGINWNGDSRGYADSVRGRFTISRDNAKNSLYLQMNSLRAEDTALYYCARMSGYDYTRPLDYWGQGTLVTVSS
chain 2: SYELTQPPSVSVAPGQTARMTCGGDNIGYKSVNWYQQKPGQAPVLVVYDDSGRPSGIPERFSGSNSGNTATLTITRVEAGDEADFYCQVWDTNSDHHVVFGGGTKLTVL
On to B9, for which the “pseudovirus neutralization IC50” value is 925 ng/mL in experiment [1], greater than 1000 ng/mL in experiment [2] and greater than 1000 ng/mL in experiment [3]. Further, in experiment [4], the “ELISA binding EC50” value was determined as 5.54 ng/mL.

B10: C5256 (protein)
chain 1: QVQLVQSGAEVKKPGSSVKVSCEASGGPFSTYTFSWVRQAPGQGLEWLGRILPVLNITNYAQKFQSRVTITADKSTSTAYMELRSLRSEDTAVYYCARNSGYDLLDYSGMDLWGQGTTVTVSS
chain 2: DIQMTQSPSTLSASVGDRVTITCRASQTIITWLAWYQQKPGKAPNLLIYKASSLESGVPSRFSGSGSGTEFTLTISSLQPDDFATYYCQQYYTYSWTFGQGTKVEIK
Consider B10, for which the “pseudovirus neutralization IC50” value in experiment [1] was 4.38 ng/mL; in experiment [2], greater than 1000 ng/mL; in experiment [3], 4.74 ng/mL. Further, the “ELISA binding EC50” value in experiment [4] was 2.92 ng/mL.

B11: C5265 (protein)
chain 1: EVQLLESGGGLVQPGGSLRLSCAASGVTVSSEAMHWVRQAPGKGLEWVAGLSSSGGGTFYADSVKGRFTISRDTSKNTLYLQMTSLRAEDTALYYCTKETSQWLVTWFDPWGQGTLVTVSS
chain 2: DIQMTQSPSSLSASVGDRVTITCRASQTIINYLNWYQQKPGKAPMLLVYAASSLHTGVPSRFSGSGSGTDFTLTISGLQPEDFATYYCQQSYSAPPWTFGQGTKVDMK
Regarding B11, the “pseudovirus neutralization IC50” value in experiment [1], in experiment [2] and in experiment [3] was greater than 1000 ng/mL each time. In addition, the “ELISA binding EC50” value in experiment [4] was found to be 6.46 ng/mL.

B12: C5048 (protein)
chain 1: EVQLVESGGGLVQPGGSLRLSCSASGFTFSDSAMHWVRQAPGKGLEYVSAINGDGGSTYYADSVKGRFIISRDNSRNTLYLQMNSLRIADTALYYCVKEGDSSGYYPNWFDPWGQGTLVTVSS
chain 2: SYVLTQPPSVSVAPGQTARITCGGNEIGSKSVHWYLQKPGQAPVLVIFYDSDRPSGIPERFSGSNSGNTATLTITRVEAGDEADYFCQVWDSISVSVVFGGGTKLTVL
On to B12, for which the “pseudovirus neutralization IC50” value in experiment [1] was 177 ng/mL; in experiment [2] it was 848 ng/mL; in experiment [3] it was 63.9 ng/mL. Moreover, in experiment [4], the “ELISA binding EC50” value was found to be 6.25 ng/mL.

B13: C5260 (protein)
chain 1: EVQLVESGGGLVQPGGSLRLSYSASGFTFSEYAMHWVRQAPGRGLEYVSSISSKGDIRDYADSVKGRFTISRDNSKNTLYLQMSSLRVDDTAVYFCVKDVPPDTSMVTVFDYWGQGTLVTVSS
chain 2: DIQMTQSPSSLSASVGDRVTITCRASQRISMYLNWYQQKPGKAPKLLISAASSLQSGVPSRFSGSGSGTDFTLAISSLQPEDFATYYCQQSYVNPPTFGPGTKVEI
In the case of B13, the “pseudovirus neutralization IC50” value in experiment [1], in experiment [2] and in experiment [3] was greater than 1000 ng/mL in each case. Moreover, the “ELISA binding EC50” value in experiment [4] worked out at 2.3 ng/mL.

B14: C5255 (protein)
chain 1: QVQLVQSGAEVRKPGSSVNVSCKASGGTLTSYTLTWVRQAPGQGLEWLGRIIPMFDRANYAPKFQGRVTITADKSTNTAYMEVTSLRSDDTAVYYCAISPGIAIPLRGFDPWGQGTLVIVSS
chain 2: EIVMTQSPATLSVSPGARATLSCRASQSVSSDLAWYQQKPGQAPRLLIYGASTRATGLPTRFSGSGSGTEFTLTISSLHFEDFAVYYCQQYNNWPLTFGGGTKVEIK
Consider B14, for which the “pseudovirus neutralization IC50” value in experiment [1] was greater than 1000 ng/mL; in experiment [2] it was greater than 1000 ng/mL; in experiment [3], 0.902 ng/mL. Besides, the “ELISA binding EC50” value in experiment [4] was 3.18 ng/mL.

B15: C5266 (protein)
chain 1: EVQLVESGGDLVQPGGSLRLSCAASGFTFSSYWMHWVRQAPGKGLVWVSHINSDGSTTRYADSVKGRFTTSRDNAKNTLYLQMNSLRAEDTAVYYCANSLWLRGNFDYWGQGTLVTVSS
chain 2: NFMLTQPHSVSESPGKTVTISCTRSSGSIASNYVQWYQQRPGSAPTTVIYEDNQRPSGVPARFSGSIDSSSNSASLTISGLKTEDEADYYCQSYDSGNLYVFGTGTKVTVL
In the case of B15, the “pseudovirus neutralization IC50” value in experiment [1] was greater than 1000 ng/mL; in experiment [2] it was greater than 1000 ng/mL; in experiment [3], 31.4 ng/mL. Also, the “ELISA binding EC50” value in experiment [4] came out at 4.27 ng/mL.

For the origin of these results see the supplement of paper PMC10300432.
